Data on 53 molecules can be found in the supplement of paper PMC10986608.

SMILES strings stand for the structures. The list shows a part of the results. Many values rest on one well or one pass, so single values are uncertain.

This assay relates to Candida albicans DPL-15. The assay is described as follows: growth (OD600) after compound treatment (apparently relative to screen median) (relative growth (fraction; screen median 1.02)); DPL-15 is a caspofungin-resistant clinical isolate; higher = more fungal growth (less antifungal activity). The conditions noted are these: 25 µM; RPMI 1640; 48 h; 30 °C.
For `CCOc1ccncc1I`, the growth stood at 1.27. The value for `Clc1cc(Cl)c2c3c([nH]c2c1)CCCC3` was 0.877; that for `CC(C)c1nn(-c2ccc(F)cc2)c2c1C(c1cccc(C(F)(F)F)c1)NC2=O` (stereo not drawn) was 1.04. The value for `C#CCC(C)(C)CNC(=O)CC1(CNC(=O)c2cccc(C=O)c2)CCCCC1` was 1.02; that for `COC(=O)/C(=C\c1ccccc1)C(=O)c1c(-c2ccc(OC)cc2)oc2cc(OC)cc(OC)c12` was 1.01.

Take `CCCc1cc2c(OC)ccc(O)c2c(=O)n1C`: the growth worked out at 0.912. For `COC(=O)[C@H]1[C@@H](O)[C@@]2(O)c3c(OC)cc(OCc4ccccc4)cc3O[C@@]2(c2ccc(OC)cc2)[C@@H]1c1ccccc1`, the growth was 0.955. As for `C=CCN1C(=O)[C@]2(OCCC=C[C@H]2C)c2c(Br)cccc21`, the figure is 1; as for `CCOC(=S)SN(C(C)(C)C)S(=O)(=O)OCCCCCC(=O)OC`, 0.861; as for `COC(=O)C1=C(C)N(CC(C)C)C(=S)NC1c1cccc(OC)c1` (stereo not drawn), 0.939.

`Cc1ccc(C2NC(=O)c3c2c(C)nn3-c2cc(C)cc(C)c2)cc1` (stereo not drawn): the growth was determined as 1.03.

Turning to `COc1cc([C@@H]2[C@@H](C(=O)NCC3CC3)[C@H](C(=O)NCC3CC3)[C@H]2c2cc(OC)c(OC)c(OC)c2)cc(OC)c1OC`, the growth turned out to be 0.911. As for `COc1ccccc1N1C(=O)c2[nH]nc(CC(C)C)c2C1c1ccc(F)cc1` (stereo not drawn), the figure is 0.975. As for `C[C@@H]1CC2=CCC[C@H]2[C@]2(O1)C(=O)Nc1cc(F)ccc12`, the figure is 1. The value for `CCNC(=O)O[C@@H]1C=C[C@@H](C#Cc2ccc(C(C)(C)C)cc2)O[C@@H]1COC(C)=O` was 1.09; that for `COCCN1C(=S)NC(c2ccc(C)cc2)C(C(=O)OC)=C1C` (stereo not drawn) was 1.12. On to `C=CCN1C(=O)c2[nH]nc(CC(C)C)c2C1c1ccc(F)cc1` (stereo not drawn), for which the growth is 1.02. The value for `O=C(NC1CCCC1)[C@@H]1[C@H](C(=O)NC2CCCC2)[C@@H](c2ccccc2)[C@H]1c1ccccc1` was 1.08; that for `COc1ccc(C2=C(c3ccccc3)c3c(nc(-c4ccccn4)[nH]c3=O)C2=O)cc1` was 1.25. As for `COc1ccc2c(c1)[C@@H](NS(=O)(=O)c1ccc(C#N)cc1)[C@H](C)[C@H]2c1ccccc1`, the growth was 1.14.

Consider `CCc1ccccc1-n1nc(-c2ccccc2)c2c1C(=O)NC2c1ccccc1` (stereo not drawn), for which the growth was determined as 0.97.

In the case of `COc1ccc(Cn2nc(-c3ccccc3)cc2Nc2cc(O)cc(O)c2C(=O)N(C)CC2CCOCC2)cc1`, the growth amounted to 1.04. As for `COC(=O)C(CC(C)(C)CCOS(=O)(=O)NC(C)(C)C)c1ccccc1` (stereo not drawn), the figure is 1.11; as for `C[C@]1(Cc2occc(=O)c2OS(C)(=O)=O)C(c2ccc(F)cc2)=Nc2ccccc21`, 1.59. On to `CC(C)C1=NCCNC2=C1C(c1ccc(Br)cc1)NC2=O` (stereo not drawn), for which the growth was determined as 0.935.

Regarding `CN(C)[C@@H]1CCN(C(=O)c2c(O)cc(O)cc2Nc2ccnn2C)C1`, the growth came to 0.966. `CCOC(=S)SC(CC)CCOS(=O)(=O)NC(C)(C)c1ccccn1` (stereo not drawn): the growth amounted to 1.01. As for `COC(=O)C1=C(C)N(Cc2cccc(C(F)(F)F)c2)C(NCc2ccc(OC)cc2)=NC1c1ccc(Cl)cc1` (stereo not drawn), the figure is 0.9.

In the case of `COC(=O)C/C=C/[C@@H](C)[C@H](NC(=O)OCC(Cl)(Cl)Cl)c1cccc(OC)c1`, the growth worked out at 0.861. On to `COc1cccc([C@H]2NC(=O)C/C=C/[C@@H](C)[C@@H](c3cccc(OC)c3)NC(=O)C/C=C/[C@H]2C)c1`, for which the growth is 1.02. As for `c1ccc(-c2cc3c(nc2-c2ccccc2)CCCN3)cc1`, the figure is 1.06. The value for `C=C(C)CCc1n[nH]c2c1C(c1ccc(F)cc1)N(c1ccc(OC)cc1)C2=O` (stereo not drawn) was 1.07; that for `CC(C)=CCc1cc(O)cc2oc3cccc(O)c3c(=O)c12` was 1.02; that for `CNc1cccc(OC)c1C(=O)OCC(=O)c1ccc(Br)cc1` was 1.05.

Regarding `CC1=NCCNC2=C1C(c1cccc(C(F)(F)F)c1)N(c1ccccc1)C2=O` (stereo not drawn), the growth amounted to 1. The value for `COC(=O)C/C=C/[C@@H](C)[C@@H](c1ccccc1)N1C[C@@]2(O)CC[C@@H](O)[C@@H](OC)[C@@H]2[C@@]1(C)[C@H](O)CC=C(C)C` was 1.12; that for `CC[C@@H](O)COc1cc2c(cc1C1(c3cc4c(cc3OC[C@H](O)CC)OCO4)C(=O)Nc3cccc(Br)c31)OCO2` was 0.958. The value for `CCCCCN(C(=O)OC(C)(C)C)S(=O)(=O)NC(C)(C)C` was 1.18; that for `CCOC(=O)c1cc2c(nc1C(=O)OCC)c(=O)nc1[nH]c(C)cc(=O)n12` was 1.2; that for `COC(=O)c1c(O)cc(C)c2c(OC)c(OC)ccc12` was 1.05. As for `COC(=O)C(C(=O)OC)c1ccccc1[N+](=O)[O-]`, the figure is 0.986; as for `C=CCN1C(=O)C2=C(C(CC(C)C)=NCCN2C)C1c1ccc(C)cc1` (stereo not drawn), 1.06; as for `CCCN1C(NCc2ccccc2)=NC(c2ccc(F)cc2)C(C(=O)OC)=C1C` (stereo not drawn), 1.05. For the molecule `COc1ccc(N2C(=O)C3=C(C(CC(C)C)=NCC(C)(C)N3)C2c2ccc(Br)cc2)cc1` (stereo not drawn), the growth came out at 0.933. On to `CCC/C=C/C1=C(CO)C2(OCC(CC)(CC)CO2)[C@H]2O[C@H]2C1=O`, for which the growth turned out to be 0.961. The value for `CC1=CC2=CC(=O)C=C[C@]2(O)[C@@H]2CCC3(OCCO3)[C@@]2(O[Si](C)(C)C)C1` was 0.956; that for `C[C@@H]1C2=C(CCO[C@@H]2c2ccccc2)N[C@@H]1c1ccccc1` was 1.15; that for `COC(=O)C/C=C/[C@H](C)[C@@H](NC(=O)[C@H](C)NC(=O)OC(C)(C)C)c1ccccc1` was 1.03. The value for `O=C(c1ccccc1)N1CCc2nc(-c3ccccc3)c(-c3ccccc3)cc2C1` was 1.09; that for `COc1cc(CC=C(C)C)c2c(=O)oc(-c3ccccc3)cc2c1O` was 0.94; that for `Cc1nn(-c2ccc(OC(F)(F)F)cc2)c2c1C(c1ccccc1)NC2=O` (stereo not drawn) was 1.05.

`Cc1cc(F)ccc1C1c2c(CC(C)C)n[nH]c2C(=O)N1c1ccc(-n2ccnc2)cc1` (stereo not drawn): the growth is 1.02. As for `COc1ccc([C@@H]2[C@@H](C(=O)NC3CCCCC3)[C@@H](C(=O)NC3CCCCC3)[C@@H]2c2ccc(OC)c(OC)c2)cc1OC`, the figure is 0.823.
